Test results as given in PubChem BioAssay AID540267 (National Center for Advancing Translational Sciences (NCATS), 2011).
The campaign covered roughly 340,000 compounds. About 530 (0.16%) were called active. This list was built around the results that the source calls inconclusive (neither active nor inactive); the mix of calls is not that of the screen. Rule as the data show it: active = activity change below about -80%; inconclusive = between about -30% and that limit; inactive = weaker than that.

Assay: Small Molecules that selectively kill Giardia lamblia: qHTS;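 also: parasites exposed to compound for two days anaerobically before the ATP read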
Conditions: Giardia lamblia trophozoite viability; at 7.66 µM; hits give low values
In short: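 Giardia trophozoites, 100 cells per well, were exposed to compounds for 48 hrs at 37 deg C under anaerobic conditions; viability was then read as ATP content by bioluminescence after 15-30 min at room temperature.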
% is scaled to controls: 0 for no effect and ±100 for the full control effect.

Row | SMILES | activity change
1 | CCCCC(CC)C(=O)Nc1cc(C(=O)NCCC)ccc1N1CCC2(CC1)CC(c1cccc(Br)c1)=NO2 (stereo not given) | inconclusive: -30.4% [inhibitor]
2 | COc1ccc(C(CNC(=O)c2ccc(S(=O)(=O)N3CC(C)CC(C)C3)cc2)N(C)C)cc1 (stereo not given) | inactive: 3.04%
3 | COc1ccc(CNC(=O)c2ccc3ccccc3n2)cc1OC | inactive: -3.57%
4 | Cc1cc(C(=O)Nc2cccc3ccccc23)c(C)o1 | inconclusive: -31.1% [inhibitor]
5 | CC(C)(C)OC(=O)NCCCC[C@H](NC(=O)c1[nH]cnc1C(=O)N[C@@H](Cc1ccccc1)C(=O)OCc1ccccc1)C(=O)OC(C)(C)C | inactive: -18.7%
6 | COCCNC(=O)c1ccc(C)c(NC(=O)C2=C(C)OCCS2)c1 | inactive: 2.63%
7 | COc1ccc(C(C)=O)cc1CSc1nnc2c(Cl)cc(Cl)cn12 | inactive: 7.78%
8 | OCC1(Cc2ccc(Cl)cc2)CCN(Cc2ccc(Oc3ncccn3)cc2)CC1 | inactive: -16.5%
9 | CC(C)(C)C(=O)OCc1nc(-c2ccc3c(c2)OCCO3)cs1 | inconclusive: -35.5% [inhibitor]
10 | O=C(Nc1ccccc1)Nc1ncc([N+](=O)[O-])s1 | inconclusive: -61.7% [inhibitor]
11 | CCOC(=O)Nc1ccc(=O)n(Cc2c(Cl)cccc2Cl)c1 | inactive: 8.51%
12 | Cc1cccc(NC(=O)CSc2nc(COc3ccccc3)nc3ccccc23)c1C | inactive: 8.54%
13 | CCN1CCN(c2ccc(Cl)cc2NC(=O)c2ccco2)CC1 | inactive: 1.8%
14 | O=C(O)CCNC(=O)c1ccc(NC(=O)C(c2ccccc2)c2ccccc2)cc1 | inconclusive: -39% [inhibitor]
15 | COc1ccc(N2CCN(C(=O)c3ccc(CNc4c(N5CCOCC5)c(=O)c4=O)cc3)CC2)cc1 | inactive: 1.77%
16 | O=C(NC(=S)Nc1ccc(CN2CCOCC2)cc1)c1ccc([N+](=O)[O-])cc1Cl | inconclusive: -49.8% [inhibitor]
17 | COc1ccc(-c2nc3c4c(ncn3n2)-c2ccccc2CC42CCCC2)cc1 | inconclusive: -31.9% [inhibitor]
18 | COCCn1c(C)cc(/C=C2/SC(=O)N(C(C)C(=O)OC)C2=O)c1C (stereo not given) | inconclusive: -47.2% [inhibitor]
19 | N#Cc1ccc(C2=NC(C(F)(F)F)(C(F)(F)F)c3c(n(Cc4ccco4)c(=O)[nH]c3=O)N2)cc1 | inactive: 4.06%
20 | Cc1ccc(S(=O)(=O)N2CCC(=O)N(C(COCc3ccccc3)C(C)C)CC2)cc1 (stereo not given) | inconclusive: -35% [inhibitor]
21 | COc1ccc(-c2c(C)[nH]n3c(=O)c(Cc4ccccc4)c(C)nc23)cc1 | inactive: 1.82%
22 | O=C(CCSCCC(=O)NN=Cc1ccccc1O)NN=Cc1ccccc1O | inactive: -8.65%
23 | CCCCn1c(=O)[nH]c(=O)c2c1nc(-c1ccccn1)n2CC | inactive: 21.9%
24 | COc1ccc(S(=O)(=O)N2CCN(C(=O)c3ccc([N+](=O)[O-])o3)CC2)cc1 | inconclusive: -77.4% [inhibitor]
25 | COc1ccc(N)cc1C#N | inconclusive: -35.5% [inhibitor]

Row | SMILES | activity change
26 | COC(=O)CN1C(=O)C2(C(C#N)=C(N)Oc3c2c(C)nn3-c2ccccc2)c2ccccc21 (stereo not given) | inactive: -2.3%
27 | Cc1ccc(OCC(=O)Nc2ccc(C)c(F)c2)c([N+](=O)[O-])n1 | inconclusive: -58.5% [inhibitor]
28 | Cn1nc(C(=O)Nc2cccc(C(F)(F)F)c2)c2ccccc2c1=O | inactive: 12.9%
29 | O=C1CN(C(=O)c2ccc(Cl)c([N+](=O)[O-])c2)c2ccccc2N1 | inactive: 37.3%
30 | CCOc1ccc(N2CC(C(=O)Nc3nnc(Cc4ccc(OC)c(OC)c4)s3)CC2=O)cc1 (stereo not given) | inconclusive: -31.3% [inhibitor]
31 | O=C(Nc1cccc(O)c1)c1cc(-c2ccccc2Cl)on1 | inconclusive: -48% [inhibitor]
32 | Cn1c(/C=C/c2ccc(Br)cc2)nc2ccccc2c1=O | inconclusive: -32% [inhibitor]
33 | O=C(CN1C(=O)c2ccccc2S1(=O)=O)c1ccc2c(c1)OCCO2 | inconclusive: -69.7% [inhibitor]
34 | COc1cc(-c2noc(C)c2C#Cc2ccsc2)cc(OC)c1OC | inconclusive: -46.5% [inhibitor]
35 | O=C(Cc1ccc(Cl)cc1)NNC(=O)c1ccco1 | inconclusive: -38.8% [inhibitor]
36 | Cc1cccc(N2CCN(C(=S)Nc3ccc4nc(N5CCN(C)CC5)cc(C)c4c3)CC2C)c1 (stereo not given) | active: -88.6%
37 | O=c1cc(O)c2c(=O)n(C3CCCCC3)c3ccccc3c2o1 | inactive: 13.1%
38 | COc1ccc(C(=O)NCC(=O)N2CCCC(C(F)(F)F)C2)cc1OC (stereo not given) | inactive: -13.9%
39 | COc1ccc(-n2nc([N+](=O)[O-])c(=NCc3cccnc3)n2O)cc1 | active: -96.6%
40 | O=C(CSc1nnc(-c2ccc(F)cc2)o1)NC1CCCC1 | inconclusive: -38.6% [inhibitor]
41 | O=C(Nc1ccccc1N1CCN(C(=O)c2ccccc2)CC1)c1ccc([N+](=O)[O-])o1 | active: -86.3%
42 | CC1CCN(S(=O)(=O)c2ccc3c(c2)oc(=O)n3CC(=O)NCc2ccc3c(c2)OCO3)CC1 | inactive: -16.3%
43 | CCCCCCCNC(=O)C1(CC2CC(c3ccc(Cl)cc3)=NO2)CCN(C(=O)CCCCCBr)CC1 (stereo not given) | inconclusive: -34.8% [inhibitor]
44 | O=C(NC(=S)Nc1ccc2c(c1)OCCO2)c1ccc(F)cc1Cl | inconclusive: -36.5% [inhibitor]
45 | COc1ccc(C2C(C#N)=C(N)Oc3cc(O)ccc32)cc1 (stereo not given) | inconclusive: -37.9% [inhibitor]
46 | CCN(CC)CCCN=Cc1c(-c2ccccc2)[nH]n(-c2nc3ccccc3s2)c1=O | inactive: -13.7%
47 | CCOC(=O)c1c(NC(=O)Cn2nc(C(=O)O)c3ccccc3c2=O)sc(CC)c1C | inconclusive: -31% [inhibitor]
48 | Cc1ccccc1OCC(=O)Nc1cccc(S(=O)(=O)NC2=NCCC2)c1 | inconclusive: -34.9% [inhibitor]
49 | Cc1ccc(NC(=O)/C(=C/c2cccc([N+](=O)[O-])c2)NC(=O)C2CCCCC2)cc1 | inactive: -2.21%
50 | CC1CC(C)CN(C(=O)CSc2nnc(-c3ccc(Cl)cc3)o2)C1 (stereo not given) | inconclusive: -36.5% [inhibitor]

Row | SMILES | activity change
51 | CC(NC(=O)c1ccccc1F)c1nnc(SCC(=O)NC2CCCC2)n1C (stereo not given) | inconclusive: -55% [inhibitor]
52 | C[C@@]12C(=O)N(c3cccc(Cl)c3)C(=O)N1[C@@H]1c3ccccc3OC[C@@H]1[C@H]2c1ccccc1 | inconclusive: -35.1% [inhibitor]
53 | O=C(CCCn1cnc([N+](=O)[O-])n1)Nc1ccc(Cl)c(Cl)c1 | inconclusive: -35.6% [inhibitor]
54 | Cc1cccc(NC(=O)C(C)N2C(=O)c3ccccc3S2(=O)=O)n1 (stereo not given) | inconclusive: -40.5% [inhibitor]
55 | CCN(c1ccc(OC)cc1)S(=O)(=O)c1csc(C(N)=O)c1 | inconclusive: -41.4% [inhibitor]
56 | Cc1cc(C(=O)CSc2nnc(-c3ccncc3)n2-c2ccccc2)c(C)n1C | inconclusive: -31.9% [inhibitor]
57 | Cc1ccc(NC(=O)c2ncn(CC(=O)NCc3ccccc3)n2)cc1C | inconclusive: -41.3% [inhibitor]
58 | O=C1COc2ccc(C(=O)COC(=O)c3ccco3)cc2N1 | inconclusive: -33.1% [inhibitor]
59 | COc1ccc(NC(=S)N=Nc2c(O)[nH]c3ccccc23)cc1 | inactive: -8.8%
60 | OCCn1c(-c2ccc(F)cc2)csc1=Nc1ccccc1 | inactive: -15.4%
61 | Cc1cc(N2CC(C)OC(C)C2)n2cc(-c3ccccc3)nc2n1 (stereo not given) | inconclusive: -33.4% [inhibitor]
62 | COc1ccc(N(C(=O)c2ccncc2)S(=O)(=O)c2ccc(Cl)cc2)cc1 | inconclusive: -33.8% [inhibitor]
63 | O=C(Nc1cc(S(=O)(=O)N2CCOCC2)ccc1N1CCOCC1)c1ccc([N+](=O)[O-])s1 | active: -88.8%
64 | O=C(CCN1C(=O)COc2ccccc21)NCCN1CCOCC1 | inconclusive: -32% [inhibitor]
65 | O=C(c1ccc(Cl)cc1)C1CCN(Cc2ccccc2)CC1 | inconclusive: -38.2% [inhibitor]
66 | O=C(Cc1cc(=O)[nH]c(=O)[nH]1)N1CCC(Cc2ccccc2)CC1 | inconclusive: -31.4% [inhibitor]
67 | CCN1CCN(CCC(=O)Nc2ccc(C)cc2)CC1 | inconclusive: -35.2% [inhibitor]
68 | COc1ccc([N+](=O)[O-])cc1C(=O)Nc1ccc(OCC(=O)N2CCOCC2)cc1 | inconclusive: -36.4% [inhibitor]
69 | CSc1ncnc2c1ncn2CC(=O)C1CCC2C3CCC4=CC(=O)CCC4(C)C3CCC12C (stereo not given) | inconclusive: -31.9% [inhibitor]
70 | CSc1nc(-c2ccccc2)nc(N2CCN(C)CC2)c1C(C)=O | inconclusive: -39.6% [inhibitor]
71 | CC(C)(C)NC(=O)C(c1ccc(F)cc1)N(Cc1ccccc1Cl)C(=O)c1ccn[nH]1 (stereo not given) | inconclusive: -31.2% [inhibitor]
72 | Cc1nc(-c2ccc(S(=O)(=O)Nc3cc(F)ccc3F)cc2)co1 | inconclusive: -38.8% [inhibitor]
73 | C[C@H](NC(=O)N1CCn2c1nc1ccccc12)C(=O)N1CCCCC1 | inconclusive: -34.1% [inhibitor]
74 | COc1cccc([C@@H]2CC=C(C(=O)O)[C@H](c3ccccc3F)N2S(=O)(=O)c2ccc(C)cc2)c1 | inconclusive: -52.9% [inhibitor]
75 | O=C(N[C@H]1C/C=C\C[C@@H](CC(=O)N(CCO)Cc2ccccc2)C(=O)NC[C@H](c2ccccc2)OC1=O)OCC1c2ccccc2-c2ccccc21 | inconclusive: -30.7% [inhibitor]
